{"source": "paper PMC6602471", "note": "The list shows a part of the results. At the low end of the ranking the order means little.", "data": [{"target": "T1, ETS1 (UniProt P14921)", "T1 sequence": "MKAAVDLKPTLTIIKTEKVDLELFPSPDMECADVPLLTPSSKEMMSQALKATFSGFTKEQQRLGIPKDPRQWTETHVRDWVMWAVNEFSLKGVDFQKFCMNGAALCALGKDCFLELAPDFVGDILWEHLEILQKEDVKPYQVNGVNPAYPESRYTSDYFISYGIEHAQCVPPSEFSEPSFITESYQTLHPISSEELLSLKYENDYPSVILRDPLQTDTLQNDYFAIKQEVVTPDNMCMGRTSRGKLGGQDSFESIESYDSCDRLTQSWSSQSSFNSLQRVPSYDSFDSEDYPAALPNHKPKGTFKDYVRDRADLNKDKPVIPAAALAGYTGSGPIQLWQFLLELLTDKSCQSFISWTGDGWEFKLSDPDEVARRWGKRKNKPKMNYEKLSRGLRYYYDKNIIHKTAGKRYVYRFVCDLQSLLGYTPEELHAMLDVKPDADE", "experiment": "custom PBM", "settings": "custom protein-binding microarray; buffer, salt, pH and temperature not stated; high values mean tight binding; double strand, one strand shown", "values": [{"sequence": "GGAAAAAGGCCCAGGGTAACACCGGAAGTGGCCTTAGTCTTGATTCGCTTGACGCTGCTG", "binding signal (log fluorescence intensity)": 12.1}, {"sequence": "CTGGGACTTGACCCAGCTCTGCCACGTGGGTCGTTTGTCTTGATTCGCTTGACGCTGCTG", "binding signal (log fluorescence intensity)": 8.24}, {"sequence": "CGGAAGTGACGTAAACGTCGGATATCCGGTTCTTCTGTCTTGATTCGCTTGACGCTGCTG", "binding signal (log fluorescence intensity)": 11.8}, {"sequence": "CGGAAGTGTCGTAAACGTCGGAGATCCGGTTCTTCTGTCTTGATTCGCTTGACGCTGCTG", "binding signal (log fluorescence intensity)": 8.83}, {"sequence": "CGGAAGTGTCGTAAACGTCGGATATCCGGTTCTACTGTCTTGATTCGCTTGACGCTGCTG", "binding signal (log fluorescence intensity)": 12}, {"sequence": "GATGAATTTCTGCCCTTATTCGCACGTGCCATAACAGTCTTGATTCGCTTGACGCTGCTG", "binding signal (log fluorescence intensity)": 8.29}, {"sequence": "GTGTATAGGATCCCATCCAACACACGTTTTAAAATGGTCTTGATTCGCTTGACGCTGCTG", "binding signal (log fluorescence intensity)": 7.91}, {"sequence": "CTGGGACTTGACCCAACTCGGCCACGTGGGTCGTTTGTCTTGATTCGCTTGACGCTGCTG", "binding signal (log fluorescence intensity)": 8.27}, {"sequence": "TGTCGGGTAAGGGATTGTAGATCACGTGAATGAAAAGTCTTGATTCGCTTGACGCTGCTG", "binding signal (log fluorescence intensity)": 8.22}, {"sequence": "TGTCGGGTAAGGGAGTGTAGATCACGTGAATGAAAAGTCTTGATTCGCTTGACGCTGCTG", "binding signal (log fluorescence intensity)": 8.3}, {"sequence": "CACAATTTTTACAGTAATGTAGCACGAGTAACTCCTGTCTTGATTCGCTTGACGCTGCTG", "binding signal (log fluorescence intensity)": 8.27}, {"sequence": "TAAAGGGAAGACGGTTGTGGTAGTTCCGGGTAGTAAGTCTTGATTCGCTTGACGCTGCTG", "binding signal (log fluorescence intensity)": 8.59}, {"sequence": "GCTGCTGCGGTGGATACCCCACCGGATGTGACCCCGGTCTTGATTCGCTTGACGCTGCTG", "binding signal (log fluorescence intensity)": 10.3}, {"sequence": "GGAAAAAGGCCCAGGGTAACACCGGAAGTAGGCTTAGTCTTGATTCGCTTGACGCTGCTG", "binding signal (log fluorescence intensity)": 11.6}, {"sequence": "GCTGCTGCGGTGCATACCCCACCGGATTTGACCCCGGTCTTGATTCGCTTGACGCTGCTG", "binding signal (log fluorescence intensity)": 8.53}, {"sequence": "CAGCACAGGACTTCTTCCCTGAAGCAATTGATAACCGTCTTGATTCGCTTGACGCTGCTG", "binding signal (log fluorescence intensity)": 8.34}, {"sequence": "GTGTATAGGATCCCACCCAACACACGTGTTAAAATGGTCTTGATTCGCTTGACGCTGCTG", "binding signal (log fluorescence intensity)": 8.16}, {"sequence": "CGGAAGTGTCGTAAACGTCGGATATCCGGTTATTCTGTCTTGATTCGCTTGACGCTGCTG", "binding signal (log fluorescence intensity)": 12.1}, {"sequence": "GATTAATTTCTGCCCTTATTCGCACGTGCCATCACAGTCTTGATTCGCTTGACGCTGCTG", "binding signal (log fluorescence intensity)": 8.06}, {"sequence": "GTCTATAGGATCCCATCCAACACACGTGTTAAAATGGTCTTGATTCGCTTGACGCTGCTG", "binding signal (log fluorescence intensity)": 8.42}, {"sequence": "TAAAGAGAAGACGGTTGTGGTAGTTCCGGGTATTAAGTCTTGATTCGCTTGACGCTGCTG", "binding signal (log fluorescence intensity)": 8.26}, {"sequence": "GGGAAAAGGCCCAGGGTAACACCGGAAGTGGGCTTAGTCTTGATTCGCTTGACGCTGCTG", "binding signal (log fluorescence intensity)": 11.9}, {"sequence": "CGGAAGTGTCGTAAACGACGGATATCCGGTTCTTCTGTCTTGATTCGCTTGACGCTGCTG", "binding signal (log fluorescence intensity)": 12.4}, {"sequence": "CGGAAGTGTCGTAAACGTCGCATATCCGGTTCTTCTGTCTTGATTCGCTTGACGCTGCTG", "binding signal (log fluorescence intensity)": 12.2}, {"sequence": "GCTGCTGCGGTGCATACCCCACCGGATGTTACCCCGGTCTTGATTCGCTTGACGCTGCTG", "binding signal (log fluorescence intensity)": 9.95}, {"sequence": "GTGTATAGGATCCCATCCAACACACGCGTTAAAATGGTCTTGATTCGCTTGACGCTGCTG", "binding signal (log fluorescence intensity)": 8.37}, {"sequence": "CACACTTTTTACAGTAATGTAGCACGCGTAACTCCTGTCTTGATTCGCTTGACGCTGCTG", "binding signal (log fluorescence intensity)": 8.35}, {"sequence": "GTGTATAGGATCCCATTCAACACACGTGTTAAAATGGTCTTGATTCGCTTGACGCTGCTG", "binding signal (log fluorescence intensity)": 8.37}, {"sequence": "GGAAAAAGGCCCAGGGTAACACTGGAAGTGGGCTTAGTCTTGATTCGCTTGACGCTGCTG", "binding signal (log fluorescence intensity)": 8.22}, {"sequence": "GTGTATAGGATCCCATCCAACACACGTATTAAAATGGTCTTGATTCGCTTGACGCTGCTG", "binding signal (log fluorescence intensity)": 8.25}, {"sequence": "GTGTATAGGATCCCATCCAACACACGGGTTAAAATGGTCTTGATTCGCTTGACGCTGCTG", "binding signal (log fluorescence intensity)": 8.23}, {"sequence": "TGTCGGGTAAGGGAATGTAGATCACGTGAATGAGAAGTCTTGATTCGCTTGACGCTGCTG", "binding signal (log fluorescence intensity)": 8.19}, {"sequence": "TGTCGGGTAAGGGAATGCAGATCACGTGAATGAAAAGTCTTGATTCGCTTGACGCTGCTG", "binding signal (log fluorescence intensity)": 8.31}, {"sequence": "TGTCGGGTAACGGAATGTAGATCACGTGAATGAAAAGTCTTGATTCGCTTGACGCTGCTG", "binding signal (log fluorescence intensity)": 8.29}, {"sequence": "TAAAGGGAAGAAGGTTGTGGTAGTTCCGGGTATTAAGTCTTGATTCGCTTGACGCTGCTG", "binding signal (log fluorescence intensity)": 8.45}, {"sequence": "CACAATTTTTAAAGTAATGTAGCACGCGTAACTCCTGTCTTGATTCGCTTGACGCTGCTG", "binding signal (log fluorescence intensity)": 8.18}, {"sequence": "TCCGGCTACCAGCTCCACCCACTACAGGCCTTGTAGGTCTTGATTCGCTTGACGCTGCTG", "binding signal (log fluorescence intensity)": 8.3}, {"sequence": "CGGAAGTGTCTTAAACGTCGGATATCCGGTTCTTCTGTCTTGATTCGCTTGACGCTGCTG", "binding signal (log fluorescence intensity)": 11.6}, {"sequence": "TCCGGCTACCAGCTCCACCCACTTCAGGCCTTATAGGTCTTGATTCGCTTGACGCTGCTG", "binding signal (log fluorescence intensity)": 8.46}, {"sequence": "GGTCGGGTAAGGGAATGTAGATCACGTGAATGAAAAGTCTTGATTCGCTTGACGCTGCTG", "binding signal (log fluorescence intensity)": 8.16}, {"sequence": "TCCGGCTACCAGCTCCACCCACTTCAGGACTTGTAGGTCTTGATTCGCTTGACGCTGCTG", "binding signal (log fluorescence intensity)": 8.2}]}]}
